From the RNAGym collection of RNA variant scans (doi:10.7554/elife.90254) come the findings set out here.

B1: LINE1-full (parent)
chain: UACGUAGGUGGUUUUCCCCUGAUAGUGCUAAGGGGGCCUGGAAGUUUGGACUGGGCAGAGCUCAACACAGCGUGGCAAAGUGGCUGUGGCUAGACUGCCUCUCUGGAUUCCUCGUCACUCAGCAGGGCAUCUCUGAGAGAAAUGCC

Read counts are not given, so values of variants with three or more changes are uncertain.

Variants of B1 are the subject of this data set. In words: self-cleavage, relative activity (ratio to wild type); higher = more cleavage; in vitro, sequencing; the parent is a self-cleaving ribozyme.
With A57G U91C G114A, the self-cleavage was 0.23.

Consider A59G A65G A121G, for which the self-cleavage is 0.

In the case of G54A U96C C110U A142G, the self-cleavage is 0.04.

For the variant C61U A77U U100C, the self-cleavage amounted to 0.02.

Consider A57G A124G G137A, for which the self-cleavage turned out to be 0.93.

For A59U U62A C128A A138G, the self-cleavage came out at 0.02.

In the case of U62A A64G U85C, the self-cleavage came to 0.

On to A57G A65G U102C, for which the self-cleavage is 0.

For the variant A57C U81A U115C, the self-cleavage worked out at 0.

With A59G C110A C113A, the self-cleavage came out at 0.08.

Turning to A59G U119C A141G, the self-cleavage stood at 0.

A59G G83A U109C U130C A136G: the self-cleavage worked out at 0.18.

Regarding A57G C99G A129G, the self-cleavage turned out to be 0.

In the case of A57G A124U A142U, the self-cleavage worked out at 1.05.

With A57G U102A A140G, the self-cleavage is 0.32.

On to A57U C110U A138G, for which the self-cleavage was 0.15.

Turning to A57G C128U U132A, the self-cleavage came out at 1.41.

Regarding A57G C76U C98U U102C U130C, the self-cleavage came to 0.04.

Take A57G U81C G97U: the self-cleavage came to 0.02.

Regarding A59G A64U G126U, the self-cleavage worked out at 0.08.

On to G58A G106A U115C A138G, for which the self-cleavage was found to be 0.07.

Regarding A59G U73C U132C, the self-cleavage was 0.56.

Turning to G54A U85A U112C, the self-cleavage stood at 0.02.

Consider G54A A69U G127A U130A U143A, for which the self-cleavage came to 0.05.

Turning to A57G A69G A140U, the self-cleavage was 0.39.

Turning to A57U C61U U108C U112A, the self-cleavage stood at 0.03.

C61U U91C G127A: the self-cleavage stood at 0.02.

For C56U C61U U115G A121G A141G, the self-cleavage amounted to 0.02.

A59U U115C A136G: the self-cleavage was found to be 1.48.

In the case of A57U A67G U119C U132C, the self-cleavage stood at 0.

For the variant U62A A77G U85G G139A, the self-cleavage turned out to be 0.

For A57U A94U A107G U108C A142G, the self-cleavage came out at 0.

In the case of G55A U73G A141G, the self-cleavage turned out to be 0.12.

As to G54U U62C A65U A77U U87A U109C, the self-cleavage was found to be 0.02.

For G60A A67G U109C U115C, the self-cleavage turned out to be 0.

For A57U A59G U85G, the self-cleavage worked out at 0.16.

Take G58A A78G A142G: the self-cleavage stood at 0.

Turning to A57G A67U U143A, the self-cleavage came to 0.19.

Take G58U U85C A121G A136G: the self-cleavage is 0.08.

Regarding A57G U73A U100C, the self-cleavage stood at 2.93.

Take A59G U73A G83A U104C: the self-cleavage is 0.12.

In the case of A57U A77G U134A, the self-cleavage came to 0.06.

For the variant A57U U102C A129G, the self-cleavage worked out at 0.11.

Turning to A57U U102C A129C, the self-cleavage stood at 0.2.

In the case of C56U G83A U91C U109A, the self-cleavage was found to be 0.02.

Regarding A59G U87C U112A, the self-cleavage was 0.13.

For the variant A57G U100C A121U A142G, the self-cleavage worked out at 2.1.

With A59G U73C U143C, the self-cleavage was found to be 1.53.

Regarding A57U U104C A124G, the self-cleavage was determined as 0.08.

Regarding G60A U62C U81C, the self-cleavage was 0.

Turning to A57G U85C U115A, the self-cleavage worked out at 0.13.

As for A59G A69G A142G, the self-cleavage was determined as 0.18.

As to U62A A77G A142G, the self-cleavage stood at 0.13.

In the case of A57G U102C U130C U134C, the self-cleavage is 0.

Consider A57G C76U A136G, for which the self-cleavage came to 2.29.

Turning to G55A A59G A121G, the self-cleavage amounted to 0.

A57U A117G A141U: the self-cleavage came out at 0.13.

For A57G G60A A78G U119C, the self-cleavage was found to be 0.07.

Regarding G53U U85C U100C U108C A129G, the self-cleavage amounted to 0.16.

For A59G G88U G114A, the self-cleavage was 0.02.

Turning to A59G A65G G126A U132C U143C, the self-cleavage came to 0.13.

Consider A57U A77U A121G C123U A142G, for which the self-cleavage amounted to 0.09.

Take A57C U109C A136U U143C: the self-cleavage was determined as 0.

As for A59G A79U A140G, the self-cleavage is 0.03.

For the variant A57G U96C U102C, the self-cleavage is 1.53.

On to A57G C61U C103A, for which the self-cleavage was determined as 0.08.

For the variant A59G U96A A124U U143C, the self-cleavage came to 0.02.

Regarding U62A A77U U85A, the self-cleavage amounted to 0.05.

Turning to A57G A65C A78G, the self-cleavage turned out to be 0.13.

Regarding C61U C68U U102C, the self-cleavage was 0.

In the case of G60A A65G A77U, the self-cleavage was 0.03.

For A59U A67G C101U G122C U132A, the self-cleavage stood at 0.4.

A57G A77U A136G: the self-cleavage was found to be 1.54.

Turning to A57G C95U U104C, the self-cleavage was 0.06.

Turning to G54A U100C A117G U130C, the self-cleavage is 0.2.

A57G U62C A69G: the self-cleavage came out at 0.

For the variant G55A G122A G126A A140G A142G, the self-cleavage stood at 0.

Take A57G A94G U134G: the self-cleavage was 0.

Consider A57G A59G U96A U108G U143G, for which the self-cleavage came out at 1.31.

On to A57U A78G U100C, for which the self-cleavage worked out at 0.4.

As to A59G A78G A94G, the self-cleavage turned out to be 0.45.

Consider A59G U132C A141U, for which the self-cleavage worked out at 0.35.

On to G54A U73C A77U U115C U134C, for which the self-cleavage stood at 1.

Consider A59G A124G A136G, for which the self-cleavage came to 0.07.

As to A59G A129G A141G, the self-cleavage was 0.

For the variant U62A A65G A77G U100C U134A, the self-cleavage is 0.

A59U A64U U132C: the self-cleavage came to 0.68.

As for A59U A92U A124G, the self-cleavage is 0.

A57G A69G C76U U81A G89A U119C: the self-cleavage was 0.03.

For A59G U85A U132C U143A, the self-cleavage is 0.04.

Turning to A57C U104C A138G A142G, the self-cleavage stood at 0.

Take A57U C68U U96C C145G: the self-cleavage worked out at 0.06.

A57G A69U U112C C128U A141G: the self-cleavage was found to be 0.05.

Consider G54A A59G A78G, for which the self-cleavage stood at 0.29.

A59G A69G U132A: the self-cleavage is 0.12.

For A57U U81A U85A, the self-cleavage came out at 0.01.

For A57U C61U A124U U130A A136G, the self-cleavage was found to be 0.04.

With A59G U100C A124G A140G, the self-cleavage came out at 0.

As for A57G A64U U112A A121C, the self-cleavage is 0.15.

Take A59G U85C G122U: the self-cleavage was 0.03.

A57G A59G A121C: the self-cleavage stood at 0.24.

As for A57U U73C A121G A138G, the self-cleavage is 0.3.

Turning to G60C G72A A129G, the self-cleavage worked out at 0.02.

For U62A C98U A121G, the self-cleavage was 0.04.

In the case of U62A A77U A94G, the self-cleavage came to 0.

On to G55A U81C U130C A138G A142G, for which the self-cleavage amounted to 0.37.

A59G A64G U73A: the self-cleavage turned out to be 0.04.

Regarding A59G A69G C90U, the self-cleavage is 0.05.

A59G A92U U102A: the self-cleavage came to 0.11.

Turning to G58U A67U A136G, the self-cleavage came out at 0.

For G54A U62A U112C A136U, the self-cleavage stood at 0.02.

For the variant A57U A69U A78U, the self-cleavage came to 0.01.

On to A57U U85A A129G G137C U143C, for which the self-cleavage was determined as 0.06.

As for A59G U81A A136U A142G, the self-cleavage was 0.07.

Regarding U62A A124U A129G U143C, the self-cleavage turned out to be 0.

For the variant C56U U62C A77G, the self-cleavage came to 0.07.

As to U62A A69U A140G, the self-cleavage was determined as 0.03.

Take A57G U62C U119C A140G: the self-cleavage stood at 0.

As for C56G U87C U112C, the self-cleavage came out at 0.

Turning to A57U G74A U115G, the self-cleavage came out at 0.09.

Take G54A A57G A78G: the self-cleavage was found to be 0.14.

As for G54A A94G A141G, the self-cleavage was 0.04.

C61U A107U U132C A142G: the self-cleavage came to 0.02.

Take A57G U87A U100C A129G: the self-cleavage turned out to be 0.

C56A U87A C113U G114A U132C: the self-cleavage stood at 0.03.

As to A57G U73A A79G C95A U130C U132C, the self-cleavage is 0.

G60A A64G A138G: the self-cleavage came out at 0.06.

Consider G55C G72A A94G, for which the self-cleavage worked out at 0.03.

For A59U A69U A77G U96C U119C, the self-cleavage worked out at 0.5.

As for A57G A78G U130C, the self-cleavage amounted to 0.71.

Turning to A57G A92U U102A, the self-cleavage is 0.55.

In the case of A57G A65G C71A U73C A142G, the self-cleavage was found to be 0.25.

For A59U A79U U87C A138G, the self-cleavage is 0.09.

Turning to A59G U62A U109C A141G, the self-cleavage worked out at 0.07.

Turning to A57G A138G U143G, the self-cleavage was found to be 0.62.

Turning to G54U U119A A124G, the self-cleavage is 0.32.

With A57U C71G A79G A124U A129G A138G, the self-cleavage worked out at 0.

With A57U U91C U108C G126U U134C, the self-cleavage is 0.15.

As for G54A U73C A78U A117U A129U A136G, the self-cleavage was 1.51.

A57G U87A U134A: the self-cleavage came to 0.1.

For the variant A57U A67G U143C, the self-cleavage was found to be 0.09.

Take A59G U87C U143A C145G: the self-cleavage was determined as 0.

Turning to A57C U91C U134C, the self-cleavage is 0.18.

On to A57G A124U U130C, for which the self-cleavage was 0.94.

Consider C61G A64U U87C C146U, for which the self-cleavage is 0.07.

For C56U A77G A136G, the self-cleavage stood at 0.35.

Take G60A A117G U132C: the self-cleavage was found to be 0.04.

A59U C66A A77G: the self-cleavage came to 0.19.

A57G A69G A94U U96A A136G: the self-cleavage stood at 0.

As to A59G U96A A141C, the self-cleavage was determined as 0.08.

Consider G58U U100C U112C A136U, for which the self-cleavage amounted to 0.05.

In the case of A57U U62C U112C U132C, the self-cleavage was 0.

In the case of A59U A69G A129G U134C, the self-cleavage was 0.

As for C56A A65G U134A, the self-cleavage stood at 0.18.

Consider G54U A67G A78G, for which the self-cleavage amounted to 0.3.

For the variant A57U A69U A142G, the self-cleavage is 0.01.

Consider G54A U119C U130C, for which the self-cleavage came to 1.68.

For A59G G89U U134A A140G, the self-cleavage came to 0.03.

Regarding A57U U62C U130C, the self-cleavage came to 0.

Take U62A A79G U102C: the self-cleavage turned out to be 0.07.

Take C61U U87A U109C: the self-cleavage amounted to 0.04.

A59G U87C U96C: the self-cleavage amounted to 0.

For the variant A57U A64G U109A, the self-cleavage was 0.17.

A57G C98U G114A: the self-cleavage was found to be 0.04.

Consider A57G U119C A129C, for which the self-cleavage worked out at 2.59.

With A57G A65G A121U, the self-cleavage came out at 0.13.

A57U A69G G86A U87A: the self-cleavage was determined as 0.06.
